Measured values as given in the supplement of paper PMC12009370.
This is one part of the list. Repeats are few or missing, and single values can be far off.

Assays:
[1] = test system: IMR-32; test: drug sensitivity score (DSS), single drug with vehicle (DSS (score)); higher = more cytotoxic; extreme values may be limits of the assay; conditions: 72 h; co-treatment: vehicle (DMSO)
[2] = test system: SK-N-AS; test: as above; conditions: 72 h; co-treatment: vehicle (DMSO)
[3] = test system: SK-N-AS; test: drug sensitivity score (DSS) in combination with SL-176 (DSS (score)); higher = more cytotoxic; extreme values may be limits of the assay; conditions: 72 h; co-treatment: SL-176 11.2 uM (IC25 in IMR-32)
[4] = test system: IMR-32; test: as above; conditions: 72 h; co-treatment: SL-176 11.2 uM (IC25 in IMR-32)
[5] = test system: SK-N-AS; test: drug sensitivity score (DSS) in combination with GSK2830371 (DSS (score)); neuroblastoma lines; SL-176 and GSK2830371 are WIP1 inhibitors; higher = more cytotoxic; extreme values may be limits of the assay; conditions: 72 h; co-treatment: GSK2830371 at IC25 in IMR-32
[6] = test system: IMR-32; test: as above; conditions: 72 h; co-treatment: GSK2830371 at IC25 in IMR-32
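For drug sensitivity score (DSS) in combination with GSK2830371 in this document: neuroblastoma cells in 384-well plates, each compound at five concentrations, luminescence read-out, DSS derived from fitted concentration-response curve combining IC50 with minimum and maximum inhibition.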
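For drug sensitivity score (DSS) in combination with SL-176 in this document: cells in 384-well plates, luminescence read-out, each screening drug at five concentrations, DSS derived from the fitted concentration-response curve combining IC50 with minimum and maximum inhibition.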
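For drug sensitivity score (DSS), single drug with vehicle in this document: 384-well screen with five concentrations per compound and a luminescence read-out, DSS computed from the fitted dose-response curve combining IC50 with minimum and maximum inhibition.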

Structure (SMILES)	drug sensitivity score [1]	drug sensitivity score [2]	drug sensitivity score [3]	drug sensitivity score [4]	drug sensitivity score [5]	drug sensitivity score [6]
CCn1c(-c2nonc2N)nc2cnc(Oc3cccc(NC(=O)c4ccc(OCCN5CCOCC5)cc4)c3)cc21	22.5	2.7	2.8	24.4	2.1	23.3
O=C(O)c1ccc(-c2c[nH]c3ncc(-c4ccccc4)cc23)cc1C1CCCC1	5.2	1.6	0.8	2.8	2.6	5.7
CCCCCCCCCCCCCCCCCCOP(=O)([O-])OC1CC[N+](C)(C)CC1 [Perifosine]	0	0	0	0	0	0
CC[C@]1(O)C[C@H]2CN(CCc3c([nH]c4ccccc34)[C@@](C(=O)OC)(c3cc4c(cc3OC)N(C=O)[C@H]3[C@@](O)(C(=O)OC)[C@H](OC(C)=O)[C@]5(CC)C=CCN6CC[C@]43[C@@H]65)C2)C1 [Vincristine]	32.9	20.9	21.1	29.8	19.7	30.4
CN1CCN(C2CCC(n3cc(-c4ccc(Oc5ccccc5)cc4)c4c(N)ncnc43)CC2)CC1 (centres undefined)	7.7	10.7	10.6	7	12	5.3
Nc1cccc2c1C(=O)N(C1CCC(=O)NC1=O)C2=O (centres undefined) [Pomalidomide]	0	0	0	0	0	0
Cn1nnc2c(C(N)=O)ncn2c1=O [Temozolomide]	0	0	0	0.3	0	0.9
CNC(=O)c1cc(Oc2ccc(NC(=O)Nc3ccc(Cl)c(C(F)(F)F)c3)cc2)ccn1 [Sorafenib]	0	0	0	0	0	0
CC(C)n1cnc2c(NCCc3ccc(O)cc3)nc(-c3csc4ccccc34)nc21 [StemRegenin 1]	0.8	1	1.6	0	0.8	2.7
CCCN(CCC)C(=O)C1=Cc2ccc(-c3ccc(C(=O)N4CCCC4)cc3)cc2N=C(N)C1 [Motolimod]	0.1	2.4	2.7	1.9	3.6	5.5
COCCNCc1ccc(-c2cc3nccc(Oc4ccc(NC(=S)NC(=O)Cc5ccc(F)cc5)cc4F)c3s2)nc1 [Glesatinib]	3.6	1.1	0.9	5.4	0.6	4.8
CC(=O)Nc1ccc(C(=O)Nc2ccccc2N)cc1 [Tacedinaline]	0	0.1	0	0	0	0.9
CCOc1cc2ncc(C#N)c(Nc3ccc(OCc4ccccn4)c(Cl)c3)c2cc1NC(=O)/C=C/CN(C)C [Neratinib]	0.6	1.4	1.4	0.3	1.5	0.2
O=C(CCNC(=O)c1ccc(OC(F)(F)F)cc1)N[C@@H]1CCCc2ccccc21	21.1	0.4	0.1	19.1	0	21.3
